Source: PubChem BioAssay AID1508623 (National Center for Advancing Translational Sciences (NCATS), 2021)
Among all 48,000 compounds or so, about 450 (0.94%) were called active. Not shown: some 19% with an inconclusive outcome. The call rests on the fitted dose curve; in most records, active means well fitted inhibition curve with a large enough effect; inconclusive means small, poorly fitted or top-dose-only effect; inactive means no such curve, though single readings can be large or run the other way. The list shows a part of the results.

Test: Primary qHTS for Identification of Small Molecule Inhibitors of Huntingtin Promoter Activity; further: nearly all actives have a fitted effect of over 50% in size
Conditions: HEK293 HTT promoter firefly luciferase reporter (activity 0% = vehicle and -100% = no light), 24 h; series mostly up to 57.5 µM; activity change, negative = inhibition: at the top concentration
Method in brief: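 Luminescence was read after Dual-Glo reagent and a 10 min room-temperature incubation. Values were normalized to vehicle (0% activity) and zero RLU (-100% activity). Reporter HEK293 cells had been exposed to compounds (up to 57.5 uM final) for 24 h.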

Activity change, negative = inhibition, inactive:
CCCn1c(=N)n(CC(O)COc2ccccc2OC)c2ccccc21 (stereo not drawn) -6.48%
Cc1ccc(N2CC(NC(=O)CCc3ccccc3)CC2=O)cc1C (stereo not drawn) -16%
Cc1nn(CC(=O)N2CCN(c3cccc(C(F)(F)F)c3)CC2)c(=O)c2cc3sccc3n12 -6.82%
CCn1ccc2c(OCC(=O)NCc3ccccc3)cccc2c1=O -23.2%
CCCN1CCN(c2cc3c(cc2F)c(=O)c(S(=O)(=O)c2ccc(CC)cc2)cn3CC)CC1 4.41%
CCOc1ccc(NC(=O)CC(C)O)cc1 (stereo not drawn) 12.9%
CC1Cn2c(C(=O)NCc3cccc(Br)c3)cc3cccc(c32)S1 (stereo not drawn) -10.8%
Cc1ccc(C(=O)O)cc1NC1(c2ccccc2)C(=O)c2ccccc2C1=O -3.49%
COc1ccc2oc(-c3ccc(C)c(NC(=O)c4ccc(-c5ccccc5[N+](=O)[O-])o4)c3)nc2c1 -4.86%
Cc1c(Cl)cccc1NC(=O)CSc1nc2ncccc2o1 -16.8%
COc1ccccc1CNC(=O)C1CCCN(c2nnc(C)c3c(C)n(-c4ccccc4)nc23)C1 (stereo not drawn) -4.55%
CC(=O)OCC1=C(C(=O)O)N2C(=O)[C@@H](NC(=O)Cc3cccs3)[C@H]2SC1 4.04%
CCc1ccccc1NC(=O)c1sc2nc(C)cc(COC)c2c1N -0.896%
C=Cc1ccc(Cn2c(=O)cc(C)c3c(C)nn(-c4ccccc4)c32)cc1 -11.9%
O=C(NC1(C(F)(F)F)C(=O)Nc2c1c(=O)[nH]c(=O)n2-c1ccccc1)c1ccccc1Cl (stereo not drawn) -7.02%
CC(C)c1ccc(CNc2nc(-c3ccco3)nn2C(=O)c2ccc([N+](=O)[O-])cc2)cc1 70.9%
CSCCC(NS(=O)(=O)c1ccc2c(c1)oc(=O)n2C)C(=O)Nc1ccc(Cl)cc1 (stereo not drawn) -12.2%
COCc1cc(C)nc2sc3c(c12)NC(c1ccc(O)c(OC)c1)N(c1ccccc1)C3=O (stereo not drawn) -1.4%
COc1ccc(OCC(=O)N(Cc2cccs2)c2ccc(OC)cc2)cc1 -15.7%
CCn1c(C)c(C)c2cc(C(=O)NCc3ccc(OC(C)C)cc3)ccc21 4.08%
CCCCCN(CCC12CC3CC(CC(C3)C1)C2)C(=O)NCCCc1ccncc1 -5.24%
COc1ccc(NC(=O)Cn2c(=O)n(Cc3ccc4c(c3)OCO4)c(=O)c3ccc(C(=O)NC4CCCCC4)cc32)cc1 -3.57%
CCOCCCNc1nc2ccccc2n2c(CC)nnc12 35.4%
COc1ccccc1NC(=O)CSc1nc(-c2ccc(C)cc2)nc2c1Cc1c(CO)cnc(C)c1O2 -10.2%
COc1ccc(-c2cn3nc(N4CCCC(C(=O)Nc5ccccc5OC)C4)sc3n2)cc1 (stereo not drawn) 3.27%
COC(=O)c1ccccc1NC(=O)Cn1c(=O)n(CCC(=O)NCc2ccccc2OC)c(=O)c2ccccc21 -9.79%
Cc1cn([C@@H]2O[C@H](CO)[C@@H](O)[C@H]2F)c(=O)[nH]c1=O 13.7%
Cc1ccc(Cl)cc1NC(=O)CN1C(=O)CSc2ccc(S(=O)(=O)N3CCCC3)cc21 -16.8%
c1ccc2occc2c1 7.4% [at 116 µM]
Cc1cccc(NC(=O)CCN2CCN(c3ccccc3F)CC2)c1 -11.6%
CCOC(=O)c1c(S(=O)(=O)NCC(=O)N2CCN(c3cc(C)ccc3C)CC2)c(C)n(C)c1C -20.7%
CCCN(C(=O)Cn1ncc2c1-c1ccccc1OC2)c1cccc(C)c1 -30.5%
Cc1cccc(C)c1NC(=O)Cn1c(=O)n(CCCS(=O)(=O)C2CCCCC2)c(=O)c2ccccc21 -8.51%
CCc1ccc(-c2nc(SCC(=O)NCC3CCCO3)c(-c3ccc(C)cc3)[nH]2)cc1 (stereo not drawn) -11.4%
CCOC(=O)C1CCN(c2c(C(=O)c3ccc(OC)cc3)cnc3ccccc23)CC1 -10.2%
O=C(CSc1nccn1C1CCCC1)Nc1cccc(F)c1 10.5%
CSCC[C@@H](C(=O)Nc1cccc(F)c1)N1Cc2ccccc2C1=O -4.27%
CCOCCc1nn2c(=O)cc(COC(=O)Cc3ccccc3)nc2s1 -1.66%
CN(c1ccccc1)S(=O)(=O)c1nnc(NC(=O)COc2ccccc2)s1 -15.2%
CCOC(=O)c1cc2c(=O)n3ccccc3nc2n(Cc2ccco2)c1=NC(=O)c1ccc(C)c(C)c1 -13.3%
O=C(Nc1cc2c(cc1C(=O)c1cccc(Br)c1)OCCO2)c1ccccc1F -10.8%
CN(C(=O)Cn1cnc2onc(-c3ccc(F)cc3)c2c1=O)c1ccccc1Cl -13.1%
Cc1cc(C)cc(-n2c(C)cc(C(=O)C(=O)Nc3nnc(C)s3)c2C)c1 -27%
O=C(NC1(C(F)(F)F)C(=O)Nc2c1c(=O)[nH]c(=O)n2-c1ccccc1)c1ccccc1 (stereo not drawn) -12.5%
CCOc1ccc(C(=O)NCc2nc3cccnc3n2Cc2cccc(OC)c2)cc1 -0.932%
CCCN(CCC)C(=O)Cn1c(SCc2cccc(C(F)(F)F)c2)nc2cccnc21 -24.4%
N#Cc1ccccc1NC(=O)C(=O)NCCc1csc2nc(-c3cccc(F)c3)nn12 -7.35%
C=CCCCCCCCCC(=O)O 9.77%
COc1ccc(OC)c(CNC(=O)CN(c2ccc(C)cc2)S(=O)(=O)N(C)C)c1 -5.83%
Cc1cccc(NC(=O)N2CCN(C)c3ncccc32)c1C -12.2%
Cc1ccc2occ(CC(=O)N(Cc3ccccc3Cl)C3CCS(=O)(=O)C3)c2c1 (stereo not drawn) -27.2%
O=C(CSc1oc(-c2ccccc2)nc1S(=O)(=O)c1ccc(Cl)cc1)Nc1ccc(F)cc1 -13.7%
Cc1ccc(Cn2cc(CCC(=O)NC3CCC(C)CC3)c3ccccc32)cc1 (stereo not drawn) -23.9%
CC1CCC(Nc2nc3c(-c4ccc(Cl)cc4)nnn3c3ccccc23)CC1 (stereo not drawn) -13.3%
CC(=O)c1ccc(NC(=O)CN2C(=O)CCc3ccccc32)cc1 -12.1%
CC(=O)Nc1ccc(/C=C/c2nc(-c3ccccc3O)n(-c3ccccc3)n2)cc1 -9.55%
COc1ccccc1CNS(=O)(=O)c1ccc2c(c1)NC(=O)C(C)C(=O)N2 (stereo not drawn) -18.3%
Cc1cccc(-c2nc(C)c(CCNC(=O)C(=O)Nc3cccc(Cl)c3C)s2)c1 12.9%
O=C(Cn1cc(SCc2ccc(C(F)(F)F)cc2)c2ccccc21)N1CCOCC1 4.6%
Cc1ccc(-c2nc(-c3cc4c([nH]c3=O)CC(C)(C)CC4=O)sc2C)cc1 -9.25%
CCCCSc1nc(-c2ccc(OC)cc2)ccc1C#N -28%
COC(=O)c1ccccc1NC(=O)Cn1c(CCC(=O)O)ccc1-c1cccs1 -17.9%
CCOc1ccc(N(C)C(=O)CS(=O)(=O)c2cccc3nsnc23)cc1 -17.1%
